Values joined by “and” are separate entries in the source; they are usually repeats but may differ in a detail not shown here. Equal entries are not always repeated. Structures can show the parent of a compound that is named as a salt. ± gives the standard deviation of the averaged measurements. In all, about 3,200 compounds were measured (“nuclei count (viability) relative to DMSO”: median about 99, lowest 2% from about 16 on). This is one part of the list.
Tested on: U2OS
Experiment: nuclei count (viability) relative to DMSO (% of DMSO); higher = more viable cells
Conditions: 10 µM; 24 h
Protocol: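 Primary image-based screen in U2OS cells: compounds at 10 uM for 24 h, then a 1 h o-propargyl-puromycin (OPP) pulse, click labelling, and high-throughput microscopy. Mean cytoplasmic OPP intensity and nuclei count were normalised to DMSO wells within each plate (DMSO = 100) and averaged over triplicate plates.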

SMILES | nuclei count
CN1CCN(CC(=O)N2c3ccccc3C(=O)Nc3cccnc32)CC1 [Pirenzepine dihydrochloride] | 99
Cn1c(=O)c2c(ncn2CC2OCCO2)n(C)c1=O [Doxofylline] | 98.7
Oc1cc2c(cc1O)C(c1ccccc1)CNCC2 (stereo not drawn) | 96.6
COCC(=O)NC/C=C/c1ccc2ncnc(Nc3ccc(Oc4ccc(C)nc4)c(C)c3)c2c1 | 99.1
CCCCC(=O)N(Cc1ccc(-c2ccccc2-c2nnn[nH]2)cc1)[C@H](C(=O)O)C(C)C [Valsartan (Diovan)] | 85.3
CC(=O)[C@H]1[C@H](C#N)C[C@H]2[C@@H]3CC=C4C[C@@H](O)CC[C@]4(C)[C@H]3CC[C@@]21C [Pregnenolone-16(alpha)-carbonitrile] | 98.4
OC(CCN1CCCCC1)(c1ccccc1)c1ccccc1 [Pridinol methanesulfonate salt] | 99.2
COc1cc(Nc2ncc3c(n2)-c2ccc(Cl)cc2C(c2c(F)cccc2OC)=NC3)ccc1C(=O)O [MLN8237 (Alisertib)] | 47.4
CCc1ccc(/C=C2/SC(=S)NC2=O)cc1 | 98.8
Cc1ccc(Nc2nccc(N(C)c3ccc4c(C)n(C)nc4c3)n2)cc1S(N)(=O)=O [Pazopanib HCl] | 97.5
Cc1ccc(Nc2nccc(N(C)c3ccc4c(C)n(C)nc4c3)n2)cc1S(N)(=O)=O [Pazopanib] | 91.6
CC(=Nc1ccccc1N)c1c(C)cc(=O)n(O)c1O | 92.3
CCN(CC)CCNC(=O)c1cc(Br)c(N)cc1OC [Bromopride] | 86.4
C=CCNc1ncnc2ccc(Br)cc12 | 108
OCC(CO)N[C@H]1C[C@](O)(CO)[C@@H](O)[C@H](O)[C@H]1O [Voglibose] | 92.8
Nc1cc(C(F)(F)F)c(-c2cc(N3CCOCC3)nc(N3CCOCC3)n2)cn1 | 23.8
Cc1c(C(=O)Nc2ccc(N3C[C@@H](C)O[C@@H](C)C3)nc2)cccc1-c1ccc(OC(F)(F)F)cc1 [LDE225 (NVP-LDE225, Erismodegib)] | 101
Cc1ccc(Sc2cncc3sc(C(N)=O)cc23)cc1 | 92.7
CC(C)NNC(=O)c1ccncc1 [Iproniazide phosphate] | 104
N[C@H](C(=O)O)c1ccc(C(=O)O)c(O)c1 [(S)-4-Carboxy-3-hydroxyphenylglycine] | 102
Cc1cnc(NC(=O)Nc2cc(Br)c(C)cc2OC[C@@H]2CNCCO2)cn1 | 58.6
O=C(O)c1cc(=O)c2ccccc2[nH]1 [Kynurenic acid] | 102
O=c1cc(N2CCOCC2)oc2c(-c3ccccc3)cccc12 | 91.7 and 101
CN1c2ccccc2C(=O)N2CCc3c([nH]c4ccccc34)C21 (stereo in doubt) [Evodiamine (Isoevodiamine)] | 45.4
CCCCCCCCOc1ccccc1C(=O)Nc1ccc(C(=O)OCC[N+](C)(CC)CC)cc1 [Otilonium Bromide] | 110
CN1CCCN(C(=O)c2cccc(-c3ccc(/C=C4/C(=O)Nc5ccc(Cl)cc54)o3)c2)CC1 | 6.22
CN1CCN2c3ccccc3Cc3ccccc3C2C1 (stereo not drawn) [Mianserine hydrochloride] | 107

SMILES | nuclei count
CN1CCN2c3ccccc3Cc3ccccc3C2C1 (stereo not drawn) [Mianserin hydrochloride] | 110
N[C@@H](Cc1ccc(O)c(O)c1)C(=O)O [Levodopa] | 96.3
CCS(=O)(=O)N(C)[C@H]1c2cc(C#N)ccc2OC(C)(C)[C@@H]1O (racemic) [Chromanol 293B] | 92
O=C(O)CCC(=O)c1ccc(-c2ccccc2)cc1 [Fenbufen] | 105
O=C(Nc1ccccc1)N1CCN(c2nc(-c3ccccc3)ns2)CC1 | 102
CC(C)SC(=N)N [S-Isopropylisothiourea hydrobromide] | 98.3
CC1(COc2ccc(CC3SC(=O)NC3=O)cc2)CCCCC1 (stereo not drawn) [Ciglitazone] | 97.9 ± 1.8
Cn1nc(C(C)(C)C)cc1C(=O)N[C@@H](Cc1cccc(Cl)c1)C(=O)NCC#N [Cathepsin Inhibitor 1] | 107
CN(C)CCc1c[nH]c2ccc(CS(=O)(=O)N3CCCC3)cc12 [Almotriptan malate (Axert)] | 99.1
CN(c1ncccc1CNc1nc(Nc2ccc3c(c2)CC(=O)N3)ncc1C(F)(F)F)S(C)(=O)=O | 40.2 and 40.1
C[N+](C)(C)CCOC(N)=O [Carbachol] | 101
CC(C)(C)NC[C@H](O)COc1cccc2c1CCCC2=O [(-) -Levobunolol hydrochloride] | 90.6
CC(C)c1cc(C(C)C)c(CC(=O)NS(=O)(=O)Oc2c(C(C)C)cccc2C(C)C)c(C(C)C)c1 [Avasimibe (CI-1011)] | 99.4
COc1ccc(-c2oc3cc(OC)ccc3c2C(=O)c2ccc(C#N)cc2)cc1 | 95.8
COC(=O)/C=C/C(=O)OC [Dimethyl Fumarate] | 106
Nc1ncn(C2OC(CO)C(O)C2O)c(=O)n1 (stereo not drawn) [Azacytidine-5] | 53.2
CCN1C(=O)C=CC1=O [N-Ethylmaleimide] | 98.6 ± 2.1
O=C(NC(Cc1cc(=O)[nH]c2ccccc12)C(=O)O)c1ccc(Cl)cc1 (stereo not drawn) [Rebamipide] | 101
O=C1c2c(O)ccc(O)c2C(=O)c2c(NCCNCCO)ccc(NCCNCCO)c21 [Mitoxantrone dihydrochloride] | 15.5
CCOC(=O)C1=C(C)NC(C)=C(C(=O)OC)C1c1cccc(Cl)c1Cl (stereo not drawn) [Felodipine] | 113
Cc1nc2sccn2c(=O)c1CCN1CCC(=C(c2ccc(F)cc2)c2ccc(F)cc2)CC1 [Ritanserin] | 101
Cc1oc(S(=O)(=O)N2CCCCC2)cc1NC(=O)Nc1ccccc1 | 107
C[C@H](CCC(=O)O)[C@H]1CC[C@H]2[C@@H]3C(=O)C[C@@H]4CC(=O)CC[C@]4(C)[C@H]3CC(=O)[C@]12C [Dehydrocholic acid] | 100
COc1cc2nc(N3CCCN(C)CC3)nc(NC3CCN(Cc4ccccc4)CC3)c2cc1OC | 20.1
O=S(=O)(c1cccc2cnccc12)N1CCCNCC1 [Fasudil hydrochloride] | 106
O=S(=O)(c1cccc2cnccc12)N1CCCNCC1 [Fasudil HCl (HA-1077)] | 99.5

Reference: the supplement of paper PMC8183993
